# Test results taken from the supplement of paper PMC4166925.
# ± gives the standard deviation of the averaged measurements. Over roughly 33,000 sequences, “E-score (dimensionless, -0.5 to 0.5)” has its median near -0.046; the highest 2% begin near 0.36. This is one part of the list.
# Test system: T1, SpTbr T-box DNA-binding domain (GST fusion)
# T1 sequence: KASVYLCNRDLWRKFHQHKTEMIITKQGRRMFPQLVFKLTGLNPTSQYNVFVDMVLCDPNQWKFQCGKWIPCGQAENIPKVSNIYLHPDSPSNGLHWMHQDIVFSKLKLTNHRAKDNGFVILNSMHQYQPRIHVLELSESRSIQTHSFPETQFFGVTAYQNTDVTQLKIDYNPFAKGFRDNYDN
# Assay: PBM E-score of 8-mer (E-score (dimensionless, -0.5 to 0.5)); Tbr is Tbrain of the sea star Patiria miniata (Pm) or the sea urchin Strongylocentrotus purpuratus (Sp); higher = stronger binding preference; most listed sequences are background and not binding sites
# Settings: the construct has about 5 more residues each side
# Description: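 Universal protein-binding microarray (Agilent AMADID 016060, 60-bp probes with a 35-bp variable region) incubated with 200 nM GST-fused Strongylocentrotus purpuratus Tbr T-box DNA-binding domain (residues 362-554) in PBS pH 7.5. Scored for every ungapped 8-mer (given with its reverse complement) as E-score (range -0.5 to 0.5; >0.45 counts as bound) and Z-score of median probe intensity. Two replicate arrays (datasets 1 and 2).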
# 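Note: protein at 200 nM in PBS on universal double-stranded arrays.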
row,Sequence,PBM E-score of 8-mer
1,CTAGGTCC,-0.1749 ± 0.0009
2,AGCCACCG,-0.0822 ± 0.14
3,GAACACCC,0.116 ± 0.0077
4,GCGACAGA,0.241 ± 0.02
5,AGGTAAAA,-0.0157 ± 0.037
6,TTGTACAA,-0.0646 ± 0.057
7,GCAGCTGA,0.0869 ± 0.011
8,AATCTTTG,-0.0166 ± 0.07
9,CTACAAAA,-0.0411 ± 0.0076
10,GATTCCCC,0.0126 ± 0.035
11,AACTGTTG,0.241 ± 0.017
12,GAAGTCGA,0.107 ± 0.051
13,ATGGTTTG,-0.185 ± 0.047
14,ATAGCAGA,-0.0763 ± 0.061
15,AAGCCGCA,0.0597 ± 0.017
16,AGCCAAGC,-0.252 ± 0.0039
17,GCTCTCAA,-0.0174 ± 0.017
18,GAAAGGCC,-0.158 ± 0.031
19,GGGAACCA,-0.184 ± 0.02
20,GGGGACTA,-0.217 ± 0.016
21,CTGGTACA,-0.063 ± 0.031
22,CAAAACAG,0.00426 ± 0.055
23,GCGGTGGA,-0.0937 ± 0.012
24,AGGCGGAT,-0.157 ± 0.09
25,CCTTACTC,-0.216 ± 0.011

row,Sequence,PBM E-score of 8-mer
1,ATTGCGAC,-0.0335 ± 0.048
2,CACTTCTC,0.279 ± 0.015
3,CGGCTGAG,-0.0504 ± 0.033
4,CTCCCGAG,-0.135 ± 0.03
5,CGAGTGCA,0.0405 ± 0.054
6,AGCTTATC,0.0177 ± 0.057
7,CTCGTAAG,-0.0829 ± 0.037
8,GCATGTAC,-0.203 ± 0.043
9,GGTGAGCA,0.228 ± 0.022
10,CATAGCAA,-0.148 ± 0.032
11,CGGTACCA,-0.0719 ± 0.0091
12,CTTTACGA,-0.151 ± 0.019
13,ATATTAAA,-0.0775 ± 0.025
14,AAAAAGGA,-0.111 ± 0.064
15,TGTTAAAA,0.302 ± 0.075
16,CCTGAAGC,-0.188 ± 0.022
17,ACGCAGGC,-0.149 ± 0.011
18,AAGTCCTG,-0.207 ± 0.043
19,TAAGGTGA,0.331 ± 0.021
20,CGAAGTAG,0.0791 ± 0.0065
21,CCTAGGCA,-0.0618 ± 0.034
22,ACGTTAGC,0.212 ± 0.0091
23,ATGTACTG,-0.136 ± 0.07
24,CAGTAAAC,-0.0518 ± 0.033
25,CTCAGGTA,-0.0519 ± 0.084

row,Sequence,PBM E-score of 8-mer
1,ACGGCTCC,0.0729 ± 0.015
2,ATTAATAC,-0.0371 ± 0.066
3,GAGGCCTC,-0.124 ± 0.065
4,ACAACGAC,0.0238 ± 0.0037
5,ACGCAGTA,-0.0808 ± 0.017
6,GGATGTCA,0.126 ± 0.026
7,CTCTGCTA,-0.164 ± 0.035
8,CCGTGAGA,0.143 ± 0.015
9,CACGTTTC,0.274 ± 0.017
10,ATCACTGG,-0.0934 ± 0.017
11,ATGCTCAA,-0.192 ± 0.09
12,ATCTTGCG,0.0121 ± 0.064
13,GGACACAA,-0.0795 ± 0.03
14,CAGTCGCG,0.187 ± 0.029
15,CATCATAG,-0.0479 ± 0.071
16,CCTACCAC,0.16 ± 0.013
17,ATAGCGGG,0.0652 ± 0.067
18,ATTCCGAA,-0.2854 ± 0.0024
19,CCCTATCG,-0.136 ± 0.092
20,ATGGGAAC,-0.109 ± 0.011
21,ACTTAGTC,-0.122 ± 0.11
22,TCTAGCAA,0.0241 ± 0.079
23,CGTCCTTC,-0.238 ± 0.019
24,CGTATAGA,-0.133 ± 0.062
25,AGAAAGGC,0.0264 ± 0.02

row,Sequence,PBM E-score of 8-mer
1,GCATCTAA,-0.0797 ± 0.077
2,CACGGAAC,0.0135 ± 0.049
3,ACTTAAAT,-0.2 ± 0.014
4,ACTGTAAG,0.0246 ± 0.008
5,TATAGTGA,0.13 ± 0.064
6,TCGTAGCA,0.128 ± 0.038
7,GTGTTAAC,0.4543 ± 0.0026
8,CGCCCACC,-0.0996 ± 0.17
9,GGAGAGAC,-0.102 ± 0.04
10,AGCTTGTA,-0.157 ± 0.11
11,GCCCTACA,-0.239 ± 0.038
12,ACTTAGAC,0.0615 ± 0.072
13,ATAAAGAT,-0.244 ± 0.043
14,AGCTCCTA,0.0311 ± 0.0037
15,CTATGCGC,0.0171 ± 0.043
16,CAACCTTC,0.0149 ± 0.061
17,AGTAAGCA,-0.0985 ± 0.044
18,GCTTTTCC,-0.201 ± 0.024
19,TCTCGCAA,0.278 ± 0.017
20,GAGCATCA,-0.158 ± 0.0076
21,TCTGATCA,-0.0796 ± 0.0032
22,GAGGGCTA,-0.00456 ± 0.025
23,GAGTGTTA,0.386 ± 0.021
24,ACTTTGAT,-0.101 ± 0.076
25,AAAGTACA,-0.0207 ± 0.1

row,Sequence,PBM E-score of 8-mer
1,AGCCGTCC,-0.252 ± 0.0058
2,ACATCCAC,0.136 ± 0.025
3,AAAAATAG,-0.0913 ± 0.013
4,AATGGTAC,-0.165 ± 0.035
5,GGTGCTGA,0.337 ± 0.044
6,CCGGGTCG,0.102 ± 0.015
7,CGGCAAGA,-0.00583 ± 0.057
8,ACGGTGCT,0.143 ± 0.012
9,GGCACTAA,0.126 ± 0.055
10,ACCGGATG,-0.0915 ± 0.031
11,AGGATGAT,-0.095 ± 0.066
12,CGACGCGA,0.159 ± 0.068
13,GGCATCCC,-0.152 ± 0.038
14,GGCTCAGA,-0.208 ± 0.0087
15,CATCCAGA,-0.0238 ± 0.059
16,CCACACAA,0.0877 ± 0.025
17,CGTGGTGA,0.0947 ± 0.012
18,ACTAGCAA,0.0287 ± 0.046
19,CGGCGCGA,0.3178 ± 0.00058
20,AGCCCACT,-0.0662 ± 0.087
21,ACCCGATA,0.0716 ± 0.03
22,CTTGTAGC,0.0838 ± 0.014
23,ACGCGGAC,0.123 ± 0.078
24,GCTGGTAC,-0.0633 ± 0.098
25,CCACGCCA,0.0158 ± 0.022

row,Sequence,PBM E-score of 8-mer
1,GTCGTAGA,-0.177 ± 0.018
2,AGCCCCCT,-0.356 ± 0.013
3,AGTACCTG,-0.129 ± 0.045
4,CCATTCTA,-0.169 ± 0.086
5,ACTTCGTG,0.037 ± 0.07
6,CGAAAATC,-0.126 ± 0.091
7,TATCGTCA,0.149 ± 0.019
8,ACGCGGCT,0.101 ± 0.014
9,AGCTACAT,-0.165 ± 0.078
10,CGAGATCA,0.108 ± 0.0073
11,CCACTCCA,-0.0799 ± 0.07
12,CATTGCCA,0.152 ± 0.021
13,TCAAGCAA,-0.175 ± 0.042
14,AGCCGACG,0.0538 ± 0.072
15,CTTCGGGA,-0.0424 ± 0.024
16,CCGCGTGA,0.3326 ± 0.0012
17,CCATAGTC,-0.0156 ± 0.029
18,GAATGGTC,-0.112 ± 0.044
19,ACAATGGT,-0.00439 ± 0.055
20,AAGCGATT,-0.217 ± 0.036
21,ATTCCAGG,-0.218 ± 0.03
22,AACCCCAA,-0.0577 ± 0.052
23,ACCTGTAC,-0.148 ± 0.024
24,AGACCTCG,-0.175 ± 0.029
25,CCCGTCCA,-0.253 ± 0.03

row,Sequence,PBM E-score of 8-mer
1,GATAAGTA,-0.0412 ± 0.026
2,GATCCGCA,0.117 ± 0.044
3,CCCGCATC,-0.12 ± 0.047
4,CGAACGAC,0.0742 ± 0.007
5,CCTGACAA,0.153 ± 0.0094
6,TACGGCAA,-0.1681 ± 0.001
7,AGGCTGTC,0.00841 ± 0.0021
8,CCAGGGTC,0.0269 ± 0.035
9,CATGCGGG,-0.14 ± 0.065
10,CAAGCGTC,0.167 ± 0.013
11,AGGCGGGA,0.0497 ± 0.0048
12,ATGGCTAC,-0.29 ± 0.017
13,GAGACATC,-0.213 ± 0.051
14,GACTACTA,-0.176 ± 0.055
15,CTATAAGC,0.0365 ± 0.056
16,AAGAAAAT,-0.108 ± 0.19
17,CAGGTACG,-0.105 ± 0.078
18,CGCAATCA,0.254 ± 0.044
19,GCGCGGAA,0.104 ± 0.06
20,CAGGTGTA,0.358 ± 0.0037
21,GCTGCGTA,-0.00783 ± 0.012
22,GTCCAATA,-0.183 ± 0.036
